The text below walks through data of PMC11638888 (2024).

Amino acid sequences for entries named in this document (tags omitted). A change or cut given only in a name is not applied to a line headed by its entry. Residues count along the entry.
UniProt P84091: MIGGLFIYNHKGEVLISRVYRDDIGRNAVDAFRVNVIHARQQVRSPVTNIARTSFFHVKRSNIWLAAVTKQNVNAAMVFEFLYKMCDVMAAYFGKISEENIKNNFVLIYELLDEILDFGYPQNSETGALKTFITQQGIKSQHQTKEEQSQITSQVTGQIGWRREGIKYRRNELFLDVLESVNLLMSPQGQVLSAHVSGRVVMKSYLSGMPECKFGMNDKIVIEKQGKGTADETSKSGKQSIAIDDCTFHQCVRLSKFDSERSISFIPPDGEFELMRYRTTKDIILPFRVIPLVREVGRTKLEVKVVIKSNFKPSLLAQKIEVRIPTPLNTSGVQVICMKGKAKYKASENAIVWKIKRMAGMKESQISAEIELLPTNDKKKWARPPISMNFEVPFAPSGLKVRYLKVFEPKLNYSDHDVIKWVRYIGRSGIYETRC
EGFP-MYO10-μ2-MID (NanoSPD bait of the reciprocal experiments): residues 124-435 of P84091

Changes are numbered by the printed parent chain. Results are given in words; binding and its absence hold for the method and conditions named. Some entries that bind do so weakly or less than the wild type.

Assay [1] has as its target T1, mCherry-MYO10-SLC26A4-Ct (NanoSPD bait) (mouse) (UniProt Q9R155).
T1 sequence: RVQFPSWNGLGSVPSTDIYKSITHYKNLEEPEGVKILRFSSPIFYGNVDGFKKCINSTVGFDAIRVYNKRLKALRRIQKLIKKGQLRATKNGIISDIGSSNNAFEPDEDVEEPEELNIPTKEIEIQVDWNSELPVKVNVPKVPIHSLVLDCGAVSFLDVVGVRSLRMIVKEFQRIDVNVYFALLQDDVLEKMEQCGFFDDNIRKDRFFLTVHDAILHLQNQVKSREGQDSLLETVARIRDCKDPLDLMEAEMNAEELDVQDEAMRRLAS
The assay can be described thus: NanoSPD (nanoscale pulldown); HeLa cells coexpressing mCherry-MYO10-fused SLC26A4-Ct bait and EGFP-fused μ2 prey; prey fluorescence at filopodia tips quantified.

The target in assay [2] is T2, cytosolic C-terminal region of mouse SLC26A4 (SLC26A4-Ct, residues 512 to 780), yeast two-hybrid bait (mouse) (UniProt Q9R155).
T2 sequence: T1 sequence
The assay can be described thus: two-hybrid; yeast two-hybrid screen (ULTImate Y2H, Hybrigenics Services); SLC26A4-Ct as bait against a prey library of cDNA from 8- to 10-week-old mouse kidneys.

For assay [3], the target named is T3, SLC26A4-Ct mutated at all four tyrosine-based motifs (Y530A, Y536A, Y556A, and Y691A), yeast two-hybrid bait (mouse) (UniProt Q9R155).
T3 sequence: T1 sequence with Y19A, Y25A, Y45A, Y180A
The assay can be described thus: two-hybrid; pairwise yeast two-hybrid assays; bait and prey coexpressed in yeast, growth on selective medium without histidine (-His) against nonselective control; N = 3.

Assay [4] concerns the target T2, cytosolic C-terminal region of mouse SLC26A4 (SLC26A4-Ct, residues 512 to 780), yeast two-hybrid bait (mouse). The description is as above.
Assay [5] addresses T4, SLC26A4-Ct Y556A, yeast two-hybrid bait (mouse) (UniProt Q9R155).
T4 sequence: T1 sequence with Y45A
The description is as above.

The target in assay [6] is T5, SLC26A4-Ct L539A, yeast two-hybrid bait (mouse) (UniProt Q9R155).
T5 sequence: T1 sequence with L28A
Described as above.

For assay [7], the target named is T6, SLC26A4-Ct Y691A, yeast two-hybrid bait (mouse) (UniProt Q9R155).
T6 sequence: T1 sequence with Y180A
The assay is described as above.

Assay [8] has as its target T7, SLC26A4-Ct Y530A, yeast two-hybrid bait (mouse) (UniProt Q9R155).
T7 sequence: T1 sequence with Y19A
Described as above.

For assay [9], the target named is T8, SLC26A4-Ct Y536A, yeast two-hybrid bait (mouse) (UniProt Q9R155).
T8 sequence: T1 sequence with Y25A
Described as above.

The target in assay [10] is T9, mCh-MYO10-SLC26A4-Ct L539A (NanoSPD bait) (mouse) (UniProt Q9R155).
T9 sequence: T1 sequence with L28A
The assay can be described thus: NanoSPD (nanoscale pulldown); HeLa cells coexpressing mCherry-MYO10-fused SLC26A4-Ct bait and EGFP-fused μ2 prey; prey fluorescence at filopodia tips quantified.

Assay [11] has as its target T10, mCh-MYO10-SLC26A4-Ct with Y536 intact and the three other tyrosine residues mutated to alanine (Y530A, Y556A, Y691A; NanoSPD bait) (mouse) (UniProt Q9R155).
T10 sequence: T1 sequence with Y19A, Y45A, Y180A
The assay is described as above.

Assay [12] deals with T11, mCh-MYO10-SLC26A4-Ct Y536A (NanoSPD bait) (mouse) (UniProt Q9R155).
T11 sequence: T1 sequence with Y25A
The assay is described as above.

For assay [13], the target named is T12, mCh-MYO10-SLC26A4-Ct with all four Y530A, Y536A, Y556A, and Y691A substitutions (NanoSPD bait) (mouse) (UniProt Q9R155).
T12 sequence: T1 sequence with Y19A, Y25A, Y45A, Y180A
Described as above.

Assay [14] concerns the target EGFP-MYO10-μ2-FL (NanoSPD bait of the reciprocal experiments) (mouse) (UniProt P84091). The assay can be described thus: NanoSPD (nanoscale pulldown); reciprocal format: HeLa cells coexpressing EGFP-MYO10-fused μ2 bait and mCherry-SLC26A4-Ct prey; prey fluorescence at filopodia tips quantified.
Assay [15] concerns the target EGFP-MYO10-μ2-MID (NanoSPD bait of the reciprocal experiments) (mouse) (UniProt P84091). Described as above.

Take “μ2 C-terminal domain fused to EGFP (μ2-Ct-EGFP, residues 170 to 435; NanoSPD prey) (from UniProt P84091 170-435) (domain or fragment)”: the binding result in [1] is on record as “binds”.
Turning to “μ2 subunit of the AP-2 complex, minimum interacting domain (μ2-MID, residues 124 to 435), yeast two-hybrid prey (from UniProt P84091 124-435) (domain or fragment)”, the binding entry is given as “binds” in assay [2]; “no binding” in assay [3]; “binds” in assay [4]; “binds” in assay [5]; “no binding” in assay [6]; “binds” in [7]. In addition, the binding result is on record as “binds” in [8] and “no binding” in assay [9].
As for “μ2 subunit of the AP-2 complex, prey fragment residues 93 to 435 (yeast two-hybrid screen clones) (from UniProt P84091 93-435) (domain or fragment)”, in assay [2], the binding result was “binds”.
As to “μ2-MID D176A/W421S, yeast two-hybrid prey (from UniProt P84091 124-435) (domain or fragment)”, in [4], the binding result is on record as “no binding”.
Consider “μ2-MID F174S/D176A, yeast two-hybrid prey (from UniProt P84091 124-435) (domain or fragment)”, for which, in [4], the binding result is “no binding”.
As for “μ2-MID-EGFP (NanoSPD prey) (from UniProt P84091 124-435) (domain or fragment)”, the binding entry is on record as “no binding” in assay [10]; “binds” in [11]; “no binding” in assay [12]; “binds” in assay [1]; “no binding” in [13].

B1: mCherry-SLC26A4-Ct (NanoSPD prey of the reciprocal experiments) (domain or fragment, UniProt Q9R155 512-780)
chain: T1 sequence
For the molecule B1, the binding result in [14] and in assay [15] was “binds” throughout.
